Test results: US20220380436A1 (BOARD OF TRUSTEES OF THE UNIVERSITY OF ILLINOIS, published 2022)
Positions count from the first letter of the chain named. Numbers in names are those of the source.

T1: membrane-tethered HCMV trimer (full-length gH, gL-FLAG, gO-8his) of strain Merlin on Expi293F cells (human cytomegalovirus strain Merlin, UniProt Q6SW67 24-742; F5HCH8 31-278; F5HGP1 32-472)
T1 construct: also called membrane-localized HCMV trimer; trimer from Merlin; not shown: C-terminal FLAG tag
T1 sequence 1: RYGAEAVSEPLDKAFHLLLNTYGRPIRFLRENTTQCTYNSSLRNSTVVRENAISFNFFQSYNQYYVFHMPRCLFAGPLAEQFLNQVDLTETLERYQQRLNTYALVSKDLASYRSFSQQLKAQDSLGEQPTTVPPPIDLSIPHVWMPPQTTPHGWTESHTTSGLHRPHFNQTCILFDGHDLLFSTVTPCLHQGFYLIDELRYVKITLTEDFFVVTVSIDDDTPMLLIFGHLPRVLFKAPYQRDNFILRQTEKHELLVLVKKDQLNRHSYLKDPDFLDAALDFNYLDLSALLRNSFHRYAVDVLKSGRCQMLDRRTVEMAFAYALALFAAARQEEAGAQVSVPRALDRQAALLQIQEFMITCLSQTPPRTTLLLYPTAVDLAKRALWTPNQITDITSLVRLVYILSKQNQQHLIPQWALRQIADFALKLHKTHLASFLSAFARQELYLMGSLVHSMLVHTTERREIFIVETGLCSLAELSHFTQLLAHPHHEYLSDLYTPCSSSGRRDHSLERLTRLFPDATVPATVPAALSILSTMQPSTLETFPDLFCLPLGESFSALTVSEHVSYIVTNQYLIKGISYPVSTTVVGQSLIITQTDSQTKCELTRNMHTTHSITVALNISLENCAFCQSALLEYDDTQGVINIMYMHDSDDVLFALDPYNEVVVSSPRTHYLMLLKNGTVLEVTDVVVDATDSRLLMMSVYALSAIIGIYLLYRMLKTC
T1 sequence 2: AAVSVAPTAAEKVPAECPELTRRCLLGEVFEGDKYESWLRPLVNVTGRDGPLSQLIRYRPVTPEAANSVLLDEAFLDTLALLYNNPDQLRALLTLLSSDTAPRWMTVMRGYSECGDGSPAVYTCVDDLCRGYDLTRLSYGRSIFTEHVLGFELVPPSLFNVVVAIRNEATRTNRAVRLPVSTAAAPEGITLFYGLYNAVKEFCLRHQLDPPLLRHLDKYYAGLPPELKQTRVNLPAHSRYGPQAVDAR
T1 sequence 3: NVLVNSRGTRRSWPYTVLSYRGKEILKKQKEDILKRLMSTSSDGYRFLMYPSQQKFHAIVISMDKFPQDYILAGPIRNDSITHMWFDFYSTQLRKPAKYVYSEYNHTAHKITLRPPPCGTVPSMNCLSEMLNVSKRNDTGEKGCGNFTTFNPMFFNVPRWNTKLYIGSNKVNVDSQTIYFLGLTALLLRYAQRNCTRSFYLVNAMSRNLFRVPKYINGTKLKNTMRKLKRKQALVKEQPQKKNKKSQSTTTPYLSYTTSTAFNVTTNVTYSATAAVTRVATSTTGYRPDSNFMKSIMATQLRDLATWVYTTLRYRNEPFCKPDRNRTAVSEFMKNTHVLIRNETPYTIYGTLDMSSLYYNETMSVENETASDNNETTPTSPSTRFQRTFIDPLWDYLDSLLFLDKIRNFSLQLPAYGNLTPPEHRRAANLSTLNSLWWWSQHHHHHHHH

B1: legacy sPDGFRα-Fc (PDGFRα ectodomain, IEGRMD linker, human IgG1 upper hinge and Fc) (Fc fusion)
chain: QLSLPSILPNENEKVVQLNSSFSLRCFGESEVSWQYPMSEEESSDVEIRNEENNSGLFVTVLEVSSASAAHTGLYTCYYNHTQTEENELEGRHIYIYVPDPDVAFVPLGMTDYLVIVEDDDSAIIPCRTTDPETPVTLHNSEGVVPASYDSRQGFNGTFTVGPYICEATVKGKKFQTIPFNVYALKATSELDLEMEALKTVYKSGETIVVTCAVFNNEVVDLQWTYPGEVKGKGITMLEEIKVPSIKLVYTLTVPEATVKDSGDYECAARQATREVKEMKKVTISVHEKGFIEIKPTFSQLEAVNLHEVKHFVVEVRAYPPPRISWLKNNLTLIENLTEITTDVEKIQEIRYRSKLKLIRAKEEDSGHYTIVAQNEDAVKSYTFELLTQVPSSILDLVDDHHGSTGGQTVRCTAEGTPLPDIEWMICKDIKKCNNETSWTILANNVSNIITEIHSRDRSTVEGRVTFAKVEETIAVRCLAKNLLGAENRELKLVAPTLRSEIEGRMD[human IgG1 Fc left out here]
B2: wild-type soluble PDGFRα-Fc (redesigned fusion to human IgG1 Fc) (Fc fusion)
chain: QLSLPSILPNENEKVVQLNSSFSLRCFGESEVSWQYPMSEEESSDVEIRNEENNSGLFVTVLEVSSASAAHTGLYTCYYNHTQTEENELEGRHIYIYVPDPDVAFVPLGMTDYLVIVEDDDSAIIPCRTTDPETPVTLHNSEGVVPASYDSRQGFNGTFTVGPYICEATVKGKKFQTIPFNVYALKATSELDLEMEALKTVYKSGETIVVTCAVFNNEVVDLQWTYPGEVKGKGITMLEEIKVPSIKLVYTLTVPEATVKDSGDYECAARQATREVKEMKKVTISVHEKGFIEIKPTFSQLEAVNLHEVKHFVVEVRAYPPPRISWLKNNLTLIENLTEITTDVEKIQEIRYRSKLKLIRAKEEDSGHYTIVAQNEDAVKSYTFELLTQVPSSILDLVDDHHGSTGGQTVRCTAEGTPLPDIEWMICKDIKKCNNETSWTILANNVSNIITEIHSRDRSTVEGRVTFAKVEETIAVRCLAKNLLGAENRELKLVAPTLRSEGGGS[human IgG1 Fc left out here]
notes: also called sPDGFRα-Fc; sPDGFRα-Fc WT
B3: sPDGFRα-Fc Y206S (redesigned IgG1 Fc fusion) (Fc fusion)
chain: B2 chain with Y183S
notes: also called Soluble PDGFRα-Fc Y206S; the Y206S mutant
B4: sPDGFRα-Fc V242K (redesigned IgG1 Fc fusion) (Fc fusion)
chain: B2 chain with V219K
notes: also called Soluble PDGFRα-Fc V242K; orthogonal sPDGFRα-Fc V242K

The binders below were run against T1, membrane-tethered HCMV trimer … (assay: flow cytometry, sPDGFRα-Fc on Expi293F cells expressing the trimer).

Row | Binder | binding result
1 | B1 | binds
2 | B2 | binds
3 | B3 | binds
4 | B4 | binds
